# Laboratory results published in the supplement of paper PMC3724861.
# The other results are listed elsewhere or left out.
# System: T1, Caupolican (Caup) homeodomain DNA-binding domain
# T1 sequence: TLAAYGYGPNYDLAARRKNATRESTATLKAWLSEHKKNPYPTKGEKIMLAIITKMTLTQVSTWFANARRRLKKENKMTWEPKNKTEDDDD
# Test: PBM E-score (8-mer, recovered from the published 9-mer minima) (E-score (dimensionless, -0.5 to 0.5)); Drosophila protein; higher = stronger relative binding preference, active = 0.31 or more
# Summary of the method: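 An enrichment score, with higher meaning stronger, expresses relative binding preference for each short DNA word. The protein used was Caup's homeodomain DNA-binding domain (residues 214-303), produced by in vitro transcription and translation and tested at 100 nM on custom-designed protein binding microarrays. The 8-mer values were recovered from published 9-mer scores, each equal to the lower of its two constituent 8-mer scores.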
row,Sequence,PBM E-score
1,GGGTAAGA,inactive: -0.102
2,ATTAGTTG,inactive: 0.186
3,GCCTACTA,inactive: 0.0515
4,CTAATACC,inactive: 0.0259
5,ACTAGTCC,inactive: 0.124
6,AACTCGCG,inactive: -0.00136
7,ATAATAAA,inactive: 0.124
8,AGGGGACC,inactive: -0.259
9,CGCTTTGA,inactive: -0.166
10,TACCATCA,inactive: 0.0931
11,AGTATTAG,inactive: 0.14
12,AAATCGGC,inactive: -0.148
13,CGGTGACC,inactive: -0.204
14,AGCAACCA,≥ 0.0429
15,CTGCCCGA,inactive: -0.114
16,AAAAACCT,inactive: 0.104
17,TCAAATCA,≥ 0.241
18,CGAGTCTA,inactive: -0.109
19,CAAGGGGA,inactive: -0.0103
20,AAGCGCCC,inactive: -0.264
21,AAAGGGTA,≥ 0.109
22,CACGGATG,inactive: 0.00606
23,AACTGATG,inactive: 0.0731
24,CCATCACA,inactive: -0.0311
25,AGGGCCTG,inactive: -0.122

row,Sequence,PBM E-score
1,GAACATTA,inactive: 0.219
2,ATTGCCTG,inactive: 0.0173
3,GAACTATA,inactive: 0.0858
4,ACTCTAGG,inactive: -0.0354
5,GTACGAAA,inactive: 0.128
6,AGTTATAT,inactive: 0.181
7,ACGCGCGA,inactive: -0.0622
8,CGGACAGC,inactive: -0.0438
9,CCGAGAGA,inactive: -0.166
10,GTTACCAA,inactive: 0.0951
11,ACAGAGTC,inactive: -0.00596
12,GAGTTTCC,inactive: -0.0594
13,GTTGCTCA,inactive: 0.105
14,AGCGCCAA,inactive: -0.205
15,CGGGACAG,inactive: -0.0457
16,AAAGAGCA,inactive: 0.0575
17,ACTCACCT,inactive: -0.0905
18,AAGGTTGC,inactive: -0.0566
19,ATCGATGG,inactive: 0.0724
20,AGAGGCCT,inactive: -0.198
21,GCCTCACC,inactive: -0.232
22,GGCTCGAC,inactive: -0.122
23,CGCTTGGA,inactive: -0.0438
24,AGTGTAAA,inactive: 0.13
25,TATCTCGA,inactive: 0.00943

row,Sequence,PBM E-score
1,CAGTATGC,inactive: -0.0186
2,GGTATGCA,inactive: 0.0241
3,CGGTATAC,inactive: 0.00102
4,GTGCCAGA,inactive: -0.0996
5,GGGATTGA,inactive: -0.0471
6,CGGGGGGC,inactive: -0.409
7,CACGTGTC,inactive: 0.266
8,GGGCCCAA,inactive: -0.203
9,ACTCCAAC,inactive: -0.0333
10,ACTCTAAT,inactive: 0.0481
11,GATCCTCC,inactive: -0.123
12,GCAGCAAA,inactive: -0.0553
13,AGTTTTGA,inactive: 0.0657
14,AAATCTAA,inactive: 0.0434
15,GGGCCACC,inactive: -0.313
16,GCCTGAAC,inactive: -0.161
17,CCCTACGC,inactive: -0.145
18,CCCCACCC,inactive: -0.196
19,CTTCAGAA,inactive: 0.00974
20,GCTATAAC,inactive: 0.0192
21,AGGAAGGC,inactive: -0.183
22,ATGTAACA,active: 0.429
23,AAAGGAAA,inactive: 0.0116
24,CTCGGCGA,inactive: -0.115
25,GTGTTTCA,inactive: 0.157

row,Sequence,PBM E-score
1,ACCTTCGG,inactive: -0.111
2,CAATGTCC,inactive: 0.126
3,ATCAGCCC,inactive: -0.0797
4,CCATATTC,inactive: 0.011
5,AACTGGGT,inactive: -0.0436
6,CTATTAGC,inactive: 0.0355
7,ACGATTTG,inactive: 0.11
8,AAATGCCC,inactive: -0.095
9,ACCTTCCG,≥ -0.0159
10,CGTCTGAA,inactive: -0.00988
11,ATAGCCAA,inactive: -0.0193
12,GCGGTGCA,inactive: -0.164
13,AATGAGTA,inactive: 0.114
14,ATTAAATG,inactive: 0.178
15,CTGTACCC,inactive: 0.0319
16,GGTAAAGA,inactive: -0.00885
17,CTGGCTTA,inactive: -0.0641
18,GGTTCGCA,inactive: -0.153
19,AATTTTAA,inactive: 0.00507
20,GCTTGGGA,inactive: -0.133
21,ACATCCGG,inactive: 0.104
22,CGGACGCC,inactive: -0.273
23,ATCAGCAG,inactive: 0.0216
24,AGGAGCCT,inactive: -0.198
25,CACTGGAG,inactive: -0.159

row,Sequence,PBM E-score
1,ACAGCGTC,inactive: 0.0446
2,GGATGGAA,inactive: -0.076
3,AATGGCCT,inactive: -0.108
4,TAAGTACA,active: 0.332
5,GGGTCCAA,inactive: -0.0464
6,CGGACCTA,inactive: -8e-05
7,GGAATAAA,inactive: 0.103
8,ATCATAAA,≥ 0.216
9,TTCCGAAA,inactive: 0.094
10,CCAAGTTA,inactive: 0.0407
11,ATTTAATC,inactive: 0.0796
12,CAGGAATA,inactive: 0.104
13,GGTCCGTA,inactive: -0.0633
14,CATTTTCA,inactive: 0.103
15,ACACTCCC,inactive: -0.0391
16,GAGTAGCA,inactive: -0.029
17,CAAGCCAA,inactive: 0.0502
18,ATAGACTC,inactive: -0.0161
19,CAACCTTA,inactive: 0.0881
20,CTTAATTA,inactive: 0.143
21,CAGACTAC,inactive: 0.0814
22,CGTTCCAC,inactive: -0.0743
23,ACACAGCG,inactive: 0.178
24,AGGCCTGG,inactive: -0.126
25,TAGTCCAA,inactive: 0.0286

row,Sequence,PBM E-score
1,GTGATGGA,inactive: 0.00106
2,TCCGTGCA,inactive: 0.0189
3,ACATACGA,≥ 0.289
4,ACATCGTA,inactive: 0.241
5,AGTACTGG,inactive: -0.00493
6,ATGTTTGC,inactive: 0.224
7,TCGTTCCA,inactive: 0.0144
8,ATTAAAGA,inactive: 0.0678
9,ACCGAGCG,inactive: -0.0495
10,ACTACTCA,≥ 0.116
11,ACGTACGT,≥ 0.0832
12,CGGCCTAG,inactive: -0.296
13,CTAAAACC,inactive: -0.0346
14,AAAGGCAC,inactive: -0.0852
15,ACAGCACG,inactive: 0.0526
16,CGCGTCGA,inactive: 0.00461
17,AACACCAA,inactive: 0.231
18,AGTACAAG,active: 0.416
19,ATACAACG,inactive: 0.283
20,ATCATTTC,inactive: 0.0386
21,GATGCACC,inactive: -0.033
22,AGGACTAG,inactive: 0.0628
23,ACTGCTTC,inactive: -0.165
24,CTAACCAC,inactive: 0.0967
25,GATTGCCC,inactive: -0.0856

row,Sequence,PBM E-score
1,CGTTTGTC,inactive: 0.0653
2,CAAGAAGG,inactive: -0.0209
3,AATGTTCA,inactive: 0.244
4,GTCCGTGA,inactive: 0.0381
5,CGTCAAGC,inactive: -0.141
6,AGACTGAT,inactive: 0.0435
7,GGTCGGTA,inactive: -0.0686
8,CGGGGGCC,inactive: -0.308
9,CACTCTGC,inactive: -0.033
10,GCAGTATA,inactive: -0.0375
11,TCGGCTCA,inactive: -0.131
12,GCCATGGA,inactive: -0.137
13,GAGTACGA,inactive: 0.0431
14,AACATGAC,active: 0.42
15,ACCTGGCT,inactive: -0.126
16,CGTCGCGA,inactive: -0.0662
17,CTAGCGAC,inactive: -0.0181
18,AATCCCAG,inactive: -0.0508
19,GTGCCCTA,inactive: -0.0962
20,GTCGCTTA,inactive: 0.0465
21,TATCGGAA,inactive: 0.0409
22,AGTCCATC,inactive: 0.00442
23,CCGTATAG,inactive: -0.0272
24,GTCTTTAA,inactive: 0.0822
25,CCAGTACG,inactive: -0.0139

row,Sequence,PBM E-score
1,AGACATAA,inactive: 0.217
2,GCAGAAGA,inactive: -0.113
3,ATTTTATG,inactive: 0.146
4,CTACGTGC,inactive: -0.0769
5,AGTTAAGG,inactive: -0.0195
6,AGTCTGAG,inactive: -0.0717
7,ATCGCGGG,inactive: -0.113
8,TAGGAATA,inactive: 0.0829
9,CTATTTAA,inactive: -0.0109
10,ACTGCTCG,inactive: 0.0439
11,ACATAGCA,≥ 0.283
12,TCGAGAAA,inactive: 0.0176
13,AGGGAAGC,inactive: -0.189
14,AGTCAGGA,inactive: -0.073
15,CCTTCCCG,inactive: -0.177
16,GAAGGCCC,inactive: -0.266
17,CTGCCAAG,inactive: -0.0659
18,AGAAAAAG,inactive: -0.12
19,GCGGGGAA,inactive: -0.089
20,CGGGCCGA,inactive: -0.212
21,GGTTGTAA,active: 0.333
22,TTCAAGAA,inactive: 0.0713
23,CCGAATGC,inactive: -0.0958
24,TCCTAGCA,inactive: 0.0469
25,AAAATTGT,≥ 0.221

row,Sequence,PBM E-score
1,CTATGCAG,inactive: 0.0159
2,ACAAGATC,inactive: 0.258
3,AAGAGGAT,≥ 0.0662
4,AACCTACA,inactive: 0.211
5,CACCTAGA,inactive: -0.0016
6,TACTCGGA,≥ 0.0722
7,GAGGGCAA,inactive: -0.125
8,TACTGGCA,inactive: -0.0449
9,CTTACGAA,inactive: 0.0281
10,ATGCGACG,inactive: -0.0301
11,AGTCATTC,inactive: 0.0954
12,AGGAACAC,inactive: 0.193
13,ACGCAGCG,inactive: -0.141
14,CAGCCCGA,inactive: -0.199
15,AGGTAGTA,inactive: 0.143
16,ACGCGGCC,inactive: -0.162
17,CGGAAGGC,inactive: -0.315
18,ATAAGAGC,inactive: -0.0159
19,GAAGACCA,inactive: -0.126
20,GAGTAGAA,inactive: 0.00839
21,ATTCATCA,inactive: 0.113
22,ACAGCCAG,inactive: 0.0232
23,ACTCTTCC,inactive: -0.0373
24,CGATGGAA,inactive: -0.0358
